Reference: PubChem BioAssay AID360 (National Center for Advancing Translational Sciences (NCATS), 2006)
Screen size: about 48,000 compounds; about 550 (1.1%) were called active. Not shown: some 4% with an inconclusive outcome. No stated cut-off is given here; in the data, active means potency below about 15 µM; inconclusive means mostly about 16 µM to 33 µM; inactive means weaker than that. This is one part of the list.

The compounds below were run against Lysosomal acid glucosylceramidase (Homo sapiens) (UniProt P04062) (assay: Glucocerebrosidase). Conditions: purified enzyme, resorufin glucoside fluorescence (screen aimed at inhibitors), 20 min.
Chain of UniProt P04062 (P04062 whole entry, looked up): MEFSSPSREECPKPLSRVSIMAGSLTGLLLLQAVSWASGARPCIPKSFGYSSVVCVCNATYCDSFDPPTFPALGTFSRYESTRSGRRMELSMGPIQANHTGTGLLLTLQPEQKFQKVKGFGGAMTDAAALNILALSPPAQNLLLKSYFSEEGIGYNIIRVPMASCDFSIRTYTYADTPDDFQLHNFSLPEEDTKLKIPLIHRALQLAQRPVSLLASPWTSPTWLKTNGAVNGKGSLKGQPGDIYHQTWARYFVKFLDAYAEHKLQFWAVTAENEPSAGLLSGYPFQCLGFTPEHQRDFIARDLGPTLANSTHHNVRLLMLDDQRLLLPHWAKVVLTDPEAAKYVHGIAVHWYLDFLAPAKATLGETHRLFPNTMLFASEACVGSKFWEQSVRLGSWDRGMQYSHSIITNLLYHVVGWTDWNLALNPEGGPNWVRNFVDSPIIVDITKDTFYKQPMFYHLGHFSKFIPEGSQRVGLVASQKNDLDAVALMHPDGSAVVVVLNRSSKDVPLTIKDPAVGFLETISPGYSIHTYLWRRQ
Summary of the method: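 Normal human glucocerebrosidase (0.2 nM final) was assayed with resorufin β-D-glucopyranoside (30 uM final) in 50mM citric acid/KH2PO4, 10mM sodium taurocholate, 0.01% tween-20, pH 5.9. Compounds were titrated; fluorescence (Ex 548, Em 600) read after 20 min at RT.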
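Further: the screen sought inhibitors.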
Potency means the concentration at half of the fitted maximal effect.

Potency, inactive:
O=C(O)CSC12CC3CC(C1)CC(C(=O)O)(C3)C2 > 76.9 µM
Cc1ccc(S(=O)(=O)CCSc2nc(C)cc(C)c2C#N)cc1 > 76.9 µM
O=C(COc1ccc(S(=O)(=O)NC2CCCC2)cc1)N1CCCCCC1 > 76.9 µM
CN(C)CCCN1C(=O)C(O)=C(C(=O)c2cccs2)C1c1ccccn1 (configuration not stated) > 76.9 µM
CS(=O)(=O)N(CC(=O)O)c1cccc(Cl)c1 > 76.9 µM
COCCN1Cc2cccc(C(=O)Nc3cc(OC)ccc3OC)c2C1=O > 76.9 µM
O=c1cc(Cn2ccnc2)c2cc3c(cc2o1)CCC3
COc1ccc2cc3cc(C(=O)NCC4COc5ccccc5O4)oc3nc2c1 (configuration not stated) > 76.9 µM
O=C(NCCCCNC(=O)c1cccnc1)c1cccnc1 > 76.9 µM
Cc1ccc2nc3c(cc(C(N)=S)c(=N)n3CCCOC(C)C)c(=O)n2c1 > 76.9 µM
COCCCN1C(=O)C(=O)/C(=C(/O)c2ccc(OC(C)C)cc2)C1c1cccnc1 (configuration not stated) > 76.9 µM
CCn1c(SCC(=O)Nc2nc3c(s2)CCCC3)nc2c1c(=O)n(C)c(=O)n2C > 76.9 µM
O=C(CN1C(=O)NC2(CCCCC2)C1=O)Nc1ccccc1Cl > 76.9 µM
CCN(CC)C(=O)Oc1ccc2c(=O)c(-c3ccc(OC)cc3)c(C)oc2c1 > 76.9 µM
Cc1cccn2c(=O)c3cc(C#N)c(=O)n(CCCN4CCOCC4)c3nc12 > 76.9 µM
Cc1cc(C)c2c(CN3CCN(Cc4ccc5c(c4)OCO5)CC3)cc(=O)oc2c1C > 76.9 µM
CCOC(=O)Cc1csc(NC(=O)CS(=O)(=O)Cc2ccccc2)n1 > 76.9 µM
O=C(CCc1nc(-c2ccccc2F)no1)NCCN1CCc2ccccc2C1 > 76.9 µM
Cc1nn2c3c(cnc2c1-c1ccccc1)C(=O)CCC3 > 76.9 µM
O=C(NCCCN1CCCCCC1)c1ccc(N2CCCC2=O)cc1 > 76.9 µM
CC(C)(C)c1ccc(C(=O)N2CCC(C(=O)NCC3CCCO3)CC2)cc1 (configuration not stated) > 76.9 µM
CC(SC1CCCC1)C(=O)NC(C)(C#N)C(C)C (configuration not stated) > 76.9 µM
CC(=O)NCCn1c(SCC(=O)NCCC2=CCCCC2)nc2ccccc2c1=O > 76.9 µM
Nc1cc(C(=O)N2CCCC2)cc(C(=O)N2CCCC2)c1 > 76.9 µM
O=C(NCc1cccnc1)c1cccc(NC(=O)c2ccco2)c1 > 76.9 µM
c1ccc2c(c1)CCCC2NC1=NCCC1 (configuration not stated) > 76.9 µM
O=C(O)c1ccc(NC(=O)C2CCCCC2)cc1 > 76.9 µM
Cc1ccc(-n2c(C)nc3c(cnn3-c3ccc(F)cc3)c2=O)cc1C > 76.9 µM
CC1C(=O)C(C)C(c2cccs2)NC1c1cccs1 (configuration not stated) > 76.9 µM
CCC(NS(=O)(=O)c1ccc(C)cc1)C(=O)O (configuration not stated) > 76.9 µM
Oc1ccc(-c2csc(NCc3ccco3)n2)cc1
CCCCn1c(SCC(=O)Nc2nnc(CC)s2)nc2ccccc2c1=O > 76.9 µM
CC(C)Nc1nc(C#N)nc(NC(C)C)n1 > 76.9 µM
C=CCN1C(=O)C2C(C(=O)NC)C3C=CC2(O3)C1C(=O)NCc1ccc(OC)cc1 (configuration not stated) > 76.9 µM
COc1ccc(CCC(=O)N2CCc3ccccc32)cc1 > 76.9 µM
CCOC(=O)c1[nH]c(C)c(/C=N/O)c1C > 76.9 µM
c1ccc(OCc2nn3c(-c4ccncc4)nnc3s2)cc1 > 76.9 µM
O=c1c2[nH]c3ccccc3c2ncn1CCCn1ccnc1 > 76.9 µM
O=C1Nc2cc(Cl)ccc2C1(N1CCNCC1)C(F)(F)F (configuration not stated) > 76.9 µM
COc1ccc2[nH]c(=O)c(CN(Cc3ccco3)C(=O)c3ccccc3)cc2c1 > 76.9 µM
CCOC(=O)c1[nH]c(C)c(C(=O)N(C)C)c1C > 76.9 µM
O=C(CSc1nnc(-c2ccc(S(=O)(=O)N3CCCC3)cc2)n1CC1CCCO1)NC1CC1 (configuration not stated) > 76.9 µM
c1ccc(-c2cc(-c3nn4c(-c5ccco5)nnc4s3)c3ccccc3n2)cc1 > 76.9 µM
COc1ccccc1-c1nnc(SCc2nc3ccccc3[nH]2)n1C > 76.9 µM
CC1=[N+]([O-])C(C)(C)C(C)N(O)C1=O (configuration not stated) > 76.9 µM
Cn1ccnc1SCC(=O)N(C1CCCCC1)C1CCCCC1 > 76.9 µM
Cc1ccccc1NS(=O)(=O)c1cc(C(=O)N2CCCC2)ccc1C > 76.9 µM
